Laboratory results reported in the supplement of paper PMC11417369.
This is one part of the list.

Each sequence was assayed on PfAP2-HC AP2 domain (GST-tagged) (assay: gcPBM binding intensity (ln(normalized median fluorescence intensity)); higher = stronger DNA binding).
In short: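 Plasmodium falciparum DNA-binding domains carrying a GST tag were expressed in E. coli and applied for 1 h, at about 25 μg on average, to an Agilent 4 × 180k array. The array held primer-extended double-stranded 36-bp intergenic genomic probes together with negative controls, and binding took place in 1× PBS with 1% milk, 0.2 mg/ml BSA, 0.5% salmon testes DNA and 0.03% Triton X-100. An Alexa488 anti-GST antibody detected bound protein, and the array was scanned at 488 nm. Binding intensity is taken as the highest Masliner-normalised natural-log median intensity across replicate spots of either probe orientation.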

Row | Sequence | gcPBM binding intensity (ln)
1 | GGAATAACCGGACACACACACACATATATATATATA [CACACA_site5874] | 10.4
2 | ATTTAAAATAGAAGTTATATTTATATGGGTGAAAAA [GTGCAC_negctrl_site296] | 9.5
3 | TTATAAATAAAAAGAGTGCAATTATAAATATATATA | 9.66
4 | AAAAAAATACAAATATGTACACATATATATTTAAAA [XGTACX_site4729] | 9.76
5 | AAATAAAATATGAACAGTACTTTTGATATAACCATT [XGTACX_site1873] | 9.76
6 | TTATTCATACAATATCGTACATATATATATATATAT [XGTACX_site1185] | 9.87
7 | TCTAATCTGGAGAAAAGTACATAGTATCTGGTAACA [XGTACX_site2540] | 9.45
8 | ATTATATATATATATACACACACATATATATATATA [CACACA_site8373] | 9.87
9 | GTACACCTATAATATACACACAACAAATATGCACAT [CACACA_site6603] | 10.1
10 | ATCTTATATATATGTGTGCACGTATATATAAGCAAT [GTGCAC_site9933] | 9.8
11 | GTATGTATGTATGTATGTACTTATTTATTTATTTAT [XGTACX_site1921] | 9.91
12 | TAAAAGTATTCCTTTTGTACATATAATGAAAACAAT [XGTACX_site2069] | 9.51
13 | CTGTTTTTACTAAGTTGTACAAATGATGATACCCTA [XGTACX_site630] | 9.37
14 | ATACAATAATATAAATGTACAAATTATATCTTAATT [XGTACX_site6004] | 9.62
15 | CTATATTTTTAAAAATGTACTTTATAATAAAATACT [XGTACX_site3593] | 9.53
16 | TAAATTTAAAATGACACACACTAAAATTATTTAAGT [CACACA_site4816] | 10.2
17 | ACCTTTAATATATACACACACATAAAAAAAATATAT [CACACA_site1843] | 10.6
18 | AAATATTCATAGTATACACACATTTATTTATAACCA [CACACA_site6502] | 9.73
19 | AATGATAAAAATAAATGTACAGAATGATATTTTTTT [XGTACX_site5976] | 9.73
20 | ATTAATAAATAAATGACACACACACCCACAAAAAAA [CACACA_site8839] | 11.3
21 | AAAAAATTGTTTCCCTGTACTCAAAAAAAAAAAAAA [XGTACX_site8070] | 9.21
22 | AAAAAAGAAAAGAAATGTACAGAGCTTATCTTTTTA [XGTACX_site5677] | 9.6

Row | Sequence | gcPBM binding intensity (ln)
23 | TTCAATTTTACATGTAGTACATAAATTATACACAAA [XGTACX_site4946] | 9.43
24 | TTATTCCTATTTGGATGTACATTTTAATATAAACAT [XGTACX_site4386] | 9.67
25 | TTTTTTAATTTTACATGTACATACAGGTTTTTTTTT [XGTACX_site4539] | 9.72
26 | TAAAATTTACGGTCTTGTTGCGCAACCAACATTGTC [CACACA_negctrl_site1175] | 9.79
27 | TAATAATAGTAAATATGTACATATATATATATATAG [XGTACX_site4602] | 9.97
28 | GTTTTTTTTTTTTTGGTGCGTCATTTTCAAAAGAAG [GTGCAC_site9745] | 9.56
29 | TTTATAAAATATCTTTCACACATTACTATGTATTAT [CACACA_site5148] | 9.81
30 | ATAAAAGTTTAATATTGTACGAACATGCGTTTCTAA [XGTACX_site1487] | 9.45
31 | AAAAAAAAATAAAAAAGTACAGGTAAATATATATAT [XGTACX_site5812] | 9.78
32 | GAATAAATAAAAATATGTACATAAATATATATATAT [XGTACX_site8858] | 10.1
33 | AAAAAAAAAAAATATATATATATATATATAATATTT [GTGCAC_negctrl_site678] | 9.44
34 | AAGACAAATATGTATTGTACGAACGCTTTTTAATTA [XGTACX_site1961] | 9.64
35 | ATACTTTAAAATAATACACACATGGAAAATAAAATT [CACACA_site697] | 9.94
36 | AAAAAAAAAAAAAAAACACACAATTGAATTATTAAG [CACACA_site2864] | 9.73
37 | TTTTATTATTAAACATGTACCCATATTATTGTTATG [XGTACX_site5563] | 9.64
38 | TTCTTAAAAAATCAAACACACATATATATATACATA [CACACA_site2296] | 9.69
39 | ATAAATAGAATAAAATGTACATGTAATACATATATA [XGTACX_site5475] | 9.85
40 | GTTTAGATAAAAGGGCGTACATCTATTTTTGACTAA [XGTACX_site7170] | 9.47
41 | AAAACAAAAAAATTTTGTACGAAACAATACTGTAAG [XGTACX_site7992] | 9.67
42 | TATATATATTGTTATTGTACACAAATATAGGAAATA [XGTACX_site7110] | 9.62
43 | AAATTTGGTGAAGGATGTACTTTACCTAATACTTGT [XGTACX_site4825] | 9.56
44 | AGAATTATATCATGGTGTACTTATTTGTTTATTTCT [XGTACX_site5795] | 9.81

Row | Sequence | gcPBM binding intensity (ln)
45 | ATAAATTAAACAAACACACACGTTCTTTTATTTACT [CACACA_site4556] | 9.95
46 | AAAAAAATATATTCCTAATTTATGATTAAAAGGAAT [CACACA_negctrl_site751] | 9.47
47 | TTTTTTTTTGGGTGTACACATGAATATATATTTTTT [CACACA_site5254] | 9.66
48 | AAAAAAAAAAAAAATTGTACGGATTCTTTTTTTTTT [XGTACX_site2898] | 9.38
49 | ATATTTTTTTTTTTCACACACATTTAGATTGTATTA [CACACA_site3137] | 10.2
50 | TTGTATAAAAAACTAAAAAATATAAAATAATAAGTG [CACACA_negctrl_site1704] | 9.68
51 | AACATTATCAAATAAACCATAAATCAATTCAATATG [CACACA_negctrl_site696] | 9.68
52 | AAACGTTTATTTTATTGTACATATGAAAAATGCTTC [XGTACX_site6896] | 9.66
53 | GAAATATTGAAACACACACACAAACATATATATATA [CACACA_site1911] | 10.8
54 | TATAAAAAAAATAAAATAAAATAAAATAGAAAAATA [TGCATGCA_negctrl_site109] | 9.62
55 | CGTAATAATTAATGTTGTACCCACCAAAAAAATTAA [XGTACX_site8592] | 9.52
56 | ATTACATTTTTGTTTTGTACATATATTTTATAAACA [XGTACX_site494] | 9.65
57 | TTGTTTTGTAATAAAAAAAAAATAATATAATATAAT [XGTACX_negctrl_site300] | 9.49
58 | TATATTTATATATATACACACATAATAAAAAATATA [CACACA_site844] | 9.72
59 | GTAAGAAACAGACACACACACATATAAATATAAATA [CACACA_site6515] | 10.5
60 | TATTGAAAAAGTGGAAAAAAGTACATCATACGGGAA [CACACA_negctrl_site1091] | 10
61 | ATATTTATACTATACACACCCAATTTAAAAAAAAAT [CACACA_site1163] | 9.91
62 | GAAAAATTAAAATGTGGTACAATAAAATTTTATTCA [XGTACX_site5030] | 9.64
63 | AATTTATTAATACAAAGTACTTTCTAATATGAATTT [XGTACX_site8013] | 9.66
64 | TTATTGCGCACAATTTGTACATATATATATATAGAA [XGTACX_site7573] | 9.56
65 | AGTGTATTAAATTTTGAACACACAAAATAAAACATA [CACACA_site8483] | 9.88
66 | TTTTAATTTAAAAATTAATTTATATATATATATATA [TGCATGCA_negctrl_site447] | 9.31

Row | Sequence | gcPBM binding intensity (ln)
67 | TTTAGACTTTTCTATAGTACATATTATATATATATA [XGTACX_site6532] | 9.6
68 | TAAATCACAAAATTATGTACTAAGAAGGAGCAACAT [XGTACX_site6742] | 9.68
69 | TATACCTTAATATACACACATACATATATATATATA [CACACA_site1339] | 9.83
70 | TATATACATTTTTATGTGCACATTTTATTTTTAAAT | 10.1
71 | TAACAAAGTAAAAGAACATGCAAACACGCACACAGA [TGCATGCA_site374] | 10.8
72 | GGGGAAAAAGCAGGTTGTACAGTGATGTCCATATAA [XGTACX_site7606] | 9.85
73 | TTTTTTTTTTTTTTTACACACTGCATACAAGAAAAA [CACACA_site5642] | 9.38
74 | AAAATACGAATATAAACATGCACCATATAGAACAAA [TGCATGCA_site925] | 9.88
75 | TAAAATAAAATAAGTAGTACATATATAATTATATAT [XGTACX_site6733] | 9.63
76 | TACAAATATAGATGCACACACATATACATACCTATA [CACACA_site7094] | 10.3
77 | TTTTTACAAAAAAAAAAAAAAAAAATAAAAATAAAT [CACACA_negctrl_site1738] | 9.21
78 | TTTTTTTTTTCTCCTGCATGCAGCATTTATATATTA [TGCATGCA_site390] | 10
79 | TATATATATATATATACATGCATTTTTGTTTGCTTA [TGCATGCA_site256] | 9.57
80 | GACAACGTTTCAATGTGTACATATTTATAATATATA [XGTACX_site2427] | 9.6
81 | ATTGAAAAACCGTTTAGTACATATCATCACGTTTGT [XGTACX_site1295] | 9.68
82 | TATATATATATATGTACACACATCAATCATATTAAC [CACACA_site1946] | 10.1
83 | ATATATCATGCCAAGGGTACAAATGTGTAGTTGAAA [XGTACX_site2820] | 9.74
84 | TTTTTTAAATATTATTTTTATGAGTAAATATATTAT [GTGCAC_negctrl_site277] | 9.28
85 | GACGTGGAAAAAAAAACACACACAAAAAAAAAAAAA [CACACA_site9324] | 10.4
86 | TGAACATCATTTTTATGTACACACACATATACGTTG [XGTACX_site3864] | 10.2
87 | AAAACAAACAAAAAAAAAAAAAAAAATATCAATCTA [TGCATGCA_negctrl_site203] | 9.61
88 | TAATTACCATATGGTACACACATATTTATAGGTATA [CACACA_site7603] | 9.84
